Data taken from the supplement of paper PMC10300432.
Recombinant human monoclonal antibodies (heavy:light variable regions). ELISA EC50 on the named antigen, from 10 µg/ml down; IC50 against spike pseudovirus on HT1080-ACE2 cells, 48 h; lower = stronger. Calls: IC50 above 1,000 ng/ml = non-neutralizing; EC50 above 1,000 ng/ml = non-binder.

B1: C5190 (protein)
chain 1: EVQLLESGGALVQPGGSLRLSCAASGFTFSGYVMTWVRQAPGKGLEWVASISGSGGARNHADFVKDRFTISRDNSKNTLYLQMNSLRAEDTAMYYCTKLPMIATSGTGGGDFWGQGTLVTVSS
chain 2: DIQMTQSPSTLSASVGDRVTITCRASESISSWLAWYQQKPGQVPKLLIYKASSLESGAPSRFSGSGSGTEFTLTISSLQPDDSATYYCQQYYSWWTFGQGTKVEIK
B2: C5191 (protein)
chain 1: EVQLVQPGAEMKRPGESLKISCKASGYNFHYSWIGWVRQMPGKGLEWMGFIYPGDSDTRYSPSFQGQVTISADKSISTAYLQWSSLKASDTAMYYCTRLGGTVTNREYFQHWGQGTLVTVSS
chain 2: DIQMTQSPSSLSASVGDRVTITCQASQDINNYLNWYQQKPGKAPKLLIYDASNLETGVPSRFSGGGSGTDFTFTISSLQPEDIATYYCQQFHLLPLTFGGGTKVEIK
B3: C5192 (protein)
chain 1: EVQLLESGGALVQPGGSLRLSCAASGFTFSSYAMSWVRQAPGKGLEWVSGIGGRGADTYYADSVKGRFTISRDNSKNTMFLQMNSLRAEDTAVYYCAKDPLWVQPDYFDYWGQGTLVTVSS
chain 2: DIQMTQSPSSVSASVGDRVTITCRASQGIGSWLAWYQQKPGKAPKLLIYAASSLESGVPSRFSGSGSGTEFTLTISSLQPEDFATYYCQEASSLLLTFGGGTKVEIK
B4: C5193 (protein)
chain 1: EVQLLEFGGGLVQPGGSLRISCAASGFTFSSLAMGWVRQAPGKGLEYVSGISGRGERTDYADSVKGRFTISRDNSQNTLFLQMDSLRADDTAVYYCVKSAFGLVQGEEFDYWGQGTLVTVSS
chain 2: DIQMTQSPSTLSTSVGDRVTITCRARQSIGNWLAWYQQTPGKAPKLLIYKASSLQSGVPSRFSGSGSGTEFTLTISSLQPDDFATYYCQQYTSSSTFGQGTKVEIK
B5: C5194 (protein)
chain 1: EVQLLESGGALVQPGGSLRLSCAASGFTFSNYVMNWVRQAPGKGLEWVSAISGSGGNVDYADSVKGRFTISRDNSKNTLYLQMNSLRAEDTAVYYCAKGDLLWSGELFWSYYGMDVWGQGTTVTVSS
chain 2: QSVLTQPPSASGTPGQRVTISCSGSSSNIGNNFVNWYQQLPGTAPKLLIYSNNQRPSGVPDRFSGSKSGTSASLAINGLQSEDEADYYCAAWDDSLNGVEFGGGTKLTVL
B6: C5042 (protein)
chain 1: QVQLVQSGAEVKKPGASVKVSCKASGYTFTSYGISWVRQAPGQGLEWMGWISAYSGDTNYAQKLHDRVTMTTDTSTSTVYMELRSLRSDDTAVYYCARVGSAYCSTGSCYYFDYWGQGTLVTVSS
chain 2: EIVMTQSPATLSVSPGERATLSCRASQSISDNLAWYQQKPGQAPRLLMYGASTRATGIPARFSGSGSGTEFTLTISSLQSEDFAVYYCQPYDNWPPWFTFGPGSRVEIK
B7: C5195 (protein)
chain 1: QLQLQESGPGLVKPSETLSLTCTVSSGSLSIGSYFWGWVRQSPVKGLEWMGSISHSGTTYYNPSLKSRVSVSIDTSKNQFSLKLSSVTAADTSLYYCARHLGAFDSWGQGTLVTVSS
chain 2: DIQMTQSPSSLSASVGDRVTITCRASQGISNSLAWYQQKSGKAPNLLLYSASTLESGVPSRFSGSGSGTDFTLTINSLQPEDFATYYCQQYYSTPPVTFGPGTKVDIK
B8: C5196 (protein)
chain 1: QVQLQESGPGLVKPSVTLSLTCAVSGGSISGPAWWGWVRQPPGKGLEWIGEISDGGKAEYNPSLKGRLTIGVDRSRNLFSLKLSSLTAADTAVYYCARVMGIFDYWGQGSLVTVSS
chain 2: DIQMTQSPASLSASVGDRVTITCRVSQGIGNSLAWYQQKPGKAPKLLLYASSTLESGVPSRFSGSGSGTDFTLTISSLQPEDFATYYCQQYYSFRTFGQGTKVEIK
B9: C5197 (protein)
chain 1: QVQLVETGGGVVQPGSSLRLSCAASGFSFSGYGMHWVRQAPGKGLEWVAASWADGRNKFYGESVRGRFTISRDNSKSTLYLQMTSLGAEDTAVYYCARGEHVVMATAMPGYYFDYWGQGTLVTVSS
chain 2: DIQMTQSPSTLSASVGDRVTITCRASQSISTWLAWYQQKPGKAPKLLIYKASYLESGVPSRFSGSGSGTEFTLTISSLLPDDFATYYCQQYNSYSTFGQGTKLEIK
B10: C5199 (protein)
chain 1: QVQLQESGPGVVKPSGTLSLTCVVAGGSISGISWWSWVRQSPGKGLEWIGEISHSGSTAYNPSLMSRVTISVDKSKSQFSLKLTSMTAADTAVYFCARVSGFFDYWGQGTLVTVSS
chain 2: DIQMTQSPSSLSASVGDRVTITCRVSQDIGRSLAWYQQKPGKAPKLLVYEASTLESGVPSRFSGRRSGTDYILTINSLQPDDFATYYCQQYFTTRGFGGGTKVEIK
B11: C5200 (protein)
chain 1: QLQLQESGPGLVKPSETLSLTCTVSGGSISIGSYYWAWIRQPPEKRLEWIGNVHNRGSTYYNPSLHSRVTISADTSKNQVSLRLSSVTAADTAVYFCARQLGPVDYWGQGILVTVSS
chain 2: DIQMTQSPSSLSASVGDRVTITCRASQAISNSLAWYLQKPGKAPKLLLYAASTLESGVPSRFSGSGSGTDFTLTISSLQPEDFATYYCQQYYSPPPTTFGQGTKVEIK
B12: C5201 (protein)
chain 1: QVQLVESGGGVVQPGRSLRLSCAASGFSFRNHAMNWVRQAPGKGPEWVGVIAYDGSSKWYADSVKGRFTISRDNSKNTLILQMTSLRPEDTAVYYCARDWMRAPYDSNGVDAFDVWGHGTMVTVSS
chain 2: DIQMTQSPSSLSASVGDRVTIACRASQSVGNYLNWYQQKPGKAPNLLIYAASTLHSGVPSRFSGSGSGTDFTLTISSLQPEDFATYYCQQSYTTLALTFGGGTKVEIK
B13: C5202 (protein)
chain 1: QVQLVESGGGVVQPGKSLRLSCEASGFTFRHYAMHWVRQAPGKGLEWVAFISYDGDKEYYADSVKGRYTISRDNSKNTLFLQINSLRAEDTAVFYCAKMGGGPYYENGGYFDYWGQGTLVTVSS
chain 2: DIQMTQSPSSLSASVGDRITITCQASQDISNSLNWYQQKPGKAPKLLIYEASNLETGVPSRFSGSGSGTDFSFTISSLQPEDFATYYCQHYDYPPLYTFGQGTKLEIK
B14: C5203 (protein)
chain 1: EVQLVESGGGLVQPGGSLRLSCAASGVIVSRNYMNWVRQPPGKGLEWVSVIYSGGSTFYADSVKGRFTISRHDSKNTLFLQMNSLETEDTAVYYCARGGGHYYGMDVWGQGTTVTVSS
chain 2: DIQLTQSPSFLSASVGDRVTITCRASQGISDYLAWYQQKPGKAPKLLIYGASTLQRGVPSRFSGSGSETEFTLTISNLQPEDFATYYCQQLNSNPPFPFGPGTKVDIK
B15: C5204 (protein)
chain 1: QVQLVQSGAEVKKPGSSVKVSCKTSGGTFSSYTISWVRQAPGQGLEWMGRIIPALHIPNYAQRFQDRVTFTADKSTSTAYMELSSLRSEDTAVYYCARDRSSSGWGNWFDPWGQGTLVTVSS
chain 2: QSVLTQPPSVSGAPGQRVTLSCTGSNSNIGAGYDVHWYQQLPGTAPKLLIYGNNNRPSGVPDRFSGSKSDSSASLAITGLQAEDEADYYCQSYDSSLTDVFGTGTKVTVL

molecular target: SARS-CoV-2 Omicron BA.1 spike pseudovirus; experiment: pseudovirus neutralization IC50; higher = weaker neutralization
Procedure: (§1)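 Single-round luciferase reporter pseudovirus mixed with antibody dilutions and put on HT1080-ACE2 clone 14 cells for 48 h; signal relative to no-antibody wells, four-parameter fit.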

Binder	pseudovirus neutralization IC50 [ng/mL]
B1	710
B2	0.821
B3	2.33
B4	8.57
B5	247
B6	88.7
B7	> 1000
B8	1.61
B9	4.17
B10	1.65
B11	> 1000
B12	> 1000
B13	> 1000
B14	> 1000
B15	46.5

molecular target: SARS-CoV-2 Omicron BA.4/5 spike pseudovirus; experiment: as above
Procedure: as §1

Binder	pseudovirus neutralization IC50 [ng/mL]
B1	26.9
B2	0.721
B3	> 1000
B4	13.1
B5	260
B6	365
B7	> 1000
B8	13.2
B9	> 1000
B10	4.75
B11	> 1000
B12	> 1000
B13	> 1000
B14	> 1000
B15	> 1000

molecular target: SARS-CoV-2 Wuhan-Hu-1 spike pseudovirus; experiment: as above
Procedure: as §1

Binder	pseudovirus neutralization IC50 [ng/mL]
B1	18.3
B2	1.57
B3	1.4
B4	3.59
B5	48.6
B6	89.7
B7	1.15
B8	1.62
B9	3.31
B10	1.6
B11	1.96
B12	563
B13	896
B14	37.4
B15	17.9

molecular target: SARS-CoV-2 Wuhan-Hu-1 spike receptor-binding domain; experiment: ELISA binding EC50; higher = weaker binding; ELISA of recombinant human antibody on coated antigen, from 10 µg/ml in fourfold dilutions; four-parameter fit.

Binder	ELISA binding EC50 [ng/mL]
B1	3.33
B2	2.94
B3	2.09
B4	2.05
B5	2.6
B6	5.06
B7	2.38
B8	2.51
B9	2.89
B10	2.35
B11	3.3
B12	3.77
B13	3.78
B14	6.04
B15	3.44
